B1: LINE1-mini (parent)
chain: GGCAGAGCUCAACACAGCGUGGCAAAGUGGCUGUGGCUAGACUGCC

Read counts are not given, so values of variants with three or more changes are uncertain.

In the data set the parent is B1. The experiment in a line: self-cleavage, relative activity (ratio to wild type); higher = more cleavage; in vitro, sequencing; the parent is a self-cleaving ribozyme.
In the case of GUCAGAGCUCCACACAGAGUGGCACAGUGGCUCUGGCUAGACUGCC, the self-cleavage came to 0.
For GCCAGAGCUCAACACAGCGUGGCAAAGUGGCAGAGGCUAGACUGCC, the self-cleavage came out at 0.18.
In the case of GUUAUAGCUAAACACAGCGUGGCAAAGUGGCUGUGGCUAUACUUCC, the self-cleavage amounted to 0.02.
The same measure for GUCAGAGCUCAACACAGCGUGGCAAUGUGGCUGUUGCUAGACGGAC: 0.02; for GUCAGAGCUCGACACAGCGUGGCAAAGUGGCUGUGGCGAGACUGCC: 0.01; for GUGAGAGCUCAACACAGGGUGGCAAAGUGGCUGUGGCUAGACUGCC: 0.14.
Take GUCCGAGCUAAACACAGCGUGGCACAGUGGCUUUGGCUAGACUGCC: the self-cleavage is 0.06.
As for GUCAGUGCUUAACACAGCGUGGCAAAGUGGCUGUGGCUAGACUGCC, the figure is 0.01; as for GUCAGAGCUCCAGACAGCGUGGCAAAGUGGCUGUGGCUAGACUGCC, 0.
For the variant GUCAGGGCUCAACCCAGCGUGGCAAAGUGGCAGUGGCUAGACUGGC, the self-cleavage was determined as 0.02.
Regarding GCCAGAGCUCAACACAGCGUGGCAAAGGGGCUGUGGCUUGAUUGCC, the self-cleavage worked out at 0.02.
On to GUCAGAGCUCGACACGUCGUGUCAAAGUGGCUGUGGCUAGAUUGCC, for which the self-cleavage came out at 0.
On to GUCAGAGCUCAACGCAGGGUGGCAAAGUGGCUGUGGCUAGACUGCC, for which the self-cleavage came out at 0.02.
As for GUCAGUUCUCAACACAGCGUGGCAAAGUGGCUGUGGCAAGACUGCC, the self-cleavage worked out at 0.05.
Regarding GUCAGAGCUCAUAACCGCGUGGCAGAGUGGCUGUGGCUAGACUGCC, the self-cleavage stood at 0.04.
The same measure for GUCAGAGCUCAACUCAGCGUGGCAAAGUGGCUGUGGAUAGACUGCC: 0.03; for GUCGGAGCUCAACACAGCGUGGCAAAGGGGCUGCGGCUAGACUGCC: 0.02.
In the case of GUCAGUGCUCAAGAAAACGUGUCAAAGUGGCUGUGGCUAGACUGCC, the self-cleavage is 0.12.
Consider GUCAGAGCUCCACACAGCGUGGCAAAGUGGCUGUGGCUAGACAGUC, for which the self-cleavage came to 0.01.
Take GUCAGAGCUCAACCCAGCGUGUCAAAGUGGUUGUGGAUAGACUGCC: the self-cleavage came to 0.01.
As for GUAAGAGCUCAACACAGCGUGGCAAGGUGGCUGUAGCUAGACUGCC, the self-cleavage amounted to 0.06.
Turning to GUCAGAGCUCAACACAGCGUGGCCAAGGGGCUGUGGCUAGAAUGCG, the self-cleavage was found to be 0.
For GUAAGAGCUCAACUCAGAGUGGCAAUGUGGCAAUGGGUAGACUGCA, the self-cleavage worked out at 0.03.
As to GUCAGAGCUCUACACAGCGUGGCAAAGUGGCUGUGGCUAGGCUCCC, the self-cleavage worked out at 0.02.
As for GUCAGAGCUCAUCACAGCGUGGCAAAGUGGCUGUGGCUCGACUGCC, the figure is 0.04; as for GUCAGAGCUCGACACAUCGUGGCAAAAUGGCUGUGGCUAGACUACC, 0.01; as for GUCUGAGCGCAACACAGCGUGGCAAAGUGGCUAUAGCUUGAUUGCC, 0.01.
The same measure for GUGAGUGCGCAAUGCAGCGUGGCAAAGUGGCUGUGGCUAGACUGCC: 0.12.
Turning to GUAAGAGCUCAACACAGCGUGGCAAAGCGGAUGUGGCUAGACUGCC, the self-cleavage is 0.21.
GUAAGAGCUCAACGCAGCGUGUCAAAGUGGCUGUGGCUAGACUGCG: the self-cleavage was determined as 0.06.
With GUUAGAGCUUAACACAGCCUGGCACUGUGGCUGUGGCUAGACUGCC, the self-cleavage amounted to 0.06.
As for GUCAGAGCUCAACACCGCGUGGCAAAGUAGCUGUCGCUAGACUGCC, the figure is 0.1.
For GUUAGAGCUCUACACAGCGUGGCAAAGUGGCGGUGGCUAGACUGCC, the self-cleavage came to 0.04.
Take GUCAGAGCUCAACACAGCGUGGCUAAGUGGCUGUGGCAACACUGCC: the self-cleavage stood at 0.1.
For GCCAGAGCGCAACAAAGCGUGGCAAAGUGGCUGUGGCUAGGUUGCC, the self-cleavage was found to be 0.06.
The same measure for GUCAGAGCUCAACACCGCUUGGCAAAGUGGCUGUGGCUAGACUGCC: 0; for GUCAGGGCACAACACAGCGUGGCAAAGUGGCAAUGGCUAGACUGCC: 0.03.
On to GUCAGAGCUCAACACAGCGUGGCCAAGUGGCUGUGUCUAGACUGCC, for which the self-cleavage is 0.15.
For GUUAGAGCUCAACACAGCGUUGCAAAGUGGCUGUGGCUAGACUGCC, the self-cleavage amounted to 0.1.
In the case of GUCAGAGCUCAACACAGCGUGGCAAUGUGGCUGUGACUAGACUGCC, the self-cleavage was found to be 0.03.
For the variant GUCAGAGCUCAACACCGCGUGGCAACGUGGUUGUGGCUAGACUGCC, the self-cleavage turned out to be 0.05.
Take GCCAGAGCUCAACACAGCGUGGCAAAGCGGCUUUGACUAGACUGGC: the self-cleavage was 0.03.
The same measure for GUCAGAGCUCAACACGGCGUGGCGAAGUGGCUGUGGCUAUACUGCC: 0.01; for GUCAGAGCUCAACUCAGCGUGGCAAUGUGGCUGUGGCUAGACUGCC: 0.05; for GUCAGAGCUCAUCACGGCGUGGCAAAGUGCCUGUGGGUACACUGCA: 0.01.
For the variant GUCAGAGCUCAACCCAGCGUGGCAAAGUGGCUGUGGUUAGUCUGCC, the self-cleavage was determined as 0.01.
The same measure for GUCAGAGCUCAACACGGCGUGGCAAAGUGGCUGAGGCUAGACUGAC: 0.01.
As to GUCAGGCGUCUACACAGCGGGGCAAAGUGUCUGUGGCUAGACAGCC, the self-cleavage came to 0.
As for GUCAGAGCUCAACGCAGCGUGGCAAAGUGACUGUGGCUGGACUGCC, the figure is 0.02; as for GUCAGAGCUCAACACAGCGUGGCCAAGGGGCUGUUGCUAUACUGCC, 0.03.
Consider GCCAGAGCUCAACACAGCGGGGGAAAGUGGCUGUGGCUAGACUGCC, for which the self-cleavage was 0.07.
With GUCAGAGCUCAACACGGCGUGGCAAAGUGGCUGUGGCUACACUGCC, the self-cleavage amounted to 0.03.
As for GUCAGAGCUCAACGCAGCGUGGCAAAGUGGCUGUGGCUAAACUGCC, the figure is 0.01; as for GUCGGAGCUCAACAAAGCGUGGGAAAGUGGCUGUGGCUAGACUGCC, 0.06.
GCCAGAGCUCAACACAGCGGGGCGAAGUGGCUGUGGCUAGACUGCC: the self-cleavage is 0.08.
With GUCAGGGCUCAACACAGCGUGACAGAGUUGCUGUGGCUGGACUGCC, the self-cleavage is 0.01.

Source of the values: the RNAGym collection of RNA variant scans (doi:10.7554/elife.90254).
